Reference: PubChem BioAssay AID1508624 (National Center for Advancing Translational Sciences (NCATS), 2021)
Screen size: about 48,000 compounds; about 120 (0.25%) were called active. Another 4% or so got no clear call; they are omitted. The call rests on the fitted dose curve; in most records, active means well fitted activation curve with a large enough effect; inconclusive means small, poorly fitted or top-dose-only effect, or another doubt; inactive means no such curve, though single readings can be large or run the other way. The list shows a part of the results.

assay: Primary qHTS for Identification of Small Molecule Activators of Huntingtin-Antisense Promoter Activity; conditions: HEK293 HTT-AS promoter firefly luciferase reporter, 24 h; series mostly up to 57.5 µM; activity change, positive = activation: at the top concentration; further: nearly all actives have a fitted effect of over 55% in size
In short: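 HEK293 luciferase promoter-reporter cells (2,500/well) plated 24 h, then compounds added at up to 57.5 uM final for 24 h at 37 °C. Firefly luminescence by Dual-Glo, normalized to vehicle (0%) and zero RLU (-100%).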

Activity change, positive = activation, inactive:
COc1ccccc1C(=O)NCc1ccc2c(c1)CCN2C(=O)c1ccncc1 -15.9%
Cc1cc(NC(=O)CSc2nc3c([nH]c4ccccc43)c(=O)n2-c2cccc(Cl)c2)no1 -26.1%
Clc1ccc(-c2noc3ncnc(NCCCN4CCN(c5ccccc5)CC4)c23)cc1 -24.2%
CCn1cc(C(=O)O)c(=O)c2cc(F)c(N3CCNCC3)nc21
CCOc1ccccc1NC(=O)C(Cc1ccccc1)NS(=O)(=O)c1ccc(Br)s1 (centres undefined) -41.3%
Cc1ccc(C)c(N2CCN(C(=O)C3CCN(S(=O)(=O)c4cn(C)cn4)CC3)CC2)c1 -11.9%
CC(=O)OCC(=O)NCCCOc1cccc(CN2CCCCC2)c1 -3.57%
CCc1ccc(CNC(=O)C(CC)n2ccc3cc(S(=O)(=O)N4CCCCC4)ccc32)cc1 (centres undefined) -5.81%
CC1=C(C(=O)Nc2cccnc2)C(c2ccc(F)cc2)n2nc(SCc3ccccc3F)nc2N1 (centres undefined) -10.2%
CCN(C(=O)c1cc2c(Cl)nc3ccccc3c2s1)c1cccc(Cl)c1 -7.91%
CCOC(=O)c1cnc2c(C)c(Cl)ccc2c1Nc1ccc(C)cc1C -8.49%
CN1c2cc(Cl)ccc2-c2nc(SCC(=O)Nc3ccc(F)cc3F)ncc2S1(=O)=O -28%
COc1cc(NC(=O)CN(C)S(=O)(=O)c2ccc3[nH]c4c(c3c2)CCCC4)cc(OC)c1OC -24.2%
C[C@H](NCc1ccc(OCc2cccc(F)c2)cc1)C(N)=O 8.47%
COc1ccc(OC2CCN(S(=O)(=O)c3ccc(OC)cc3)CC2)cc1 -24.3%
CCOC(=O)N1CCc2c(sc(NCc3ccc(OCC)cc3)c2C(=O)Nc2ccc(OC)cc2OC)C1 -82%
O=C(NC1CCCC1)c1ccc(CSc2nc3ccncc3n2Cc2ccccc2F)cc1 2.77%
O=C(Nc1ccccc1F)C(Cc1ccccc1)n1cccc1 (centres undefined) -3.52%
COc1ccc(-c2c3c(=O)n(C)c(=O)n(C)c3c3c(-c4ccccc4)nc4ccccc4n23)cc1 3.77% [at 11.5 µM, percent change from vehicle, -100% = no light]
CNC(=O)c1cc2c(n(-c3ccc(C)cc3)c1=O)CC(C)(C)CC2=O -9.39%
Cc1cc(C)c(Nc2nn3c(=O)c4cc5c(cc4nc3s2)OCO5)c(C)c1 -6.61%
O=C(Nc1ccc2nc(SCC(=O)N3CCOCC3)sc2c1)c1ccc(F)cc1 -24.7%
COc1cccc(C(=O)Nc2ccc3oc(-c4ccc5ccccc5c4)nc3c2)c1 17.6%
COc1cc(OC)cc(-c2nc3nc(C)c(CCC(=O)Nc4ccc(Cl)cc4)c(C)n3n2)c1 -15.5%
CCOC(=O)Cn1c(=O)oc2cc(S(=O)(=O)Nc3cc(OC)cc(OC)c3)ccc21 -14.5%
COc1ccccc1C(=O)NCc1ccc2c(c1)CCN2C(=O)c1cccc(C)c1 -3.55%
COc1ccc(N2CCN(C(=O)C3CCN(S(=O)(=O)c4cnc[nH]4)CC3)CC2)cc1 5.08%
CCc1ccccc1Nc1nn2c(=O)c3ccc(C(=O)NCc4cccs4)cc3nc2s1 -29.5%
COC(=O)C1=C(C)NC(COC(N)=O)=C(C(=O)OC(C)C)C1c1cccc(Cl)c1Cl (centres undefined) -22.9%
Cc1cccc(C(=O)Nc2cccc(C(=O)OCc3cc(=O)n4c5c(sc4n3)CCCC5)c2)c1 -19.5%
CN1CCN(C(c2ccc(F)cc2)c2sc3nc(-c4ccco4)nn3c2O)CC1 (centres undefined) 20.6%
CCn1c(C)c(C)c2cc(C(=O)NCCc3cc(OC)c(OC)c(OC)c3)ccc21 -33.2%
CCc1ccc(S(=O)(=O)c2nnn3c2nc(NCc2cccs2)c2sccc23)cc1 -38.9%
CCc1ccc(NC(=O)c2cc(C(C)=O)n3ccccc23)cc1 14.9%
CC(C)c1ccc(C2N3CC4(C)CN2CC(c2ccccc2)(C3)C4=O)cc1 (centres undefined) 4.82%
CCCc1nn2c(=O)cc(COC(=O)c3cccc(NC(=O)COc4ccc(F)cc4)c3)nc2s1 8.89%
CCOC(=O)c1scc(-c2ccccc2)c1S(=O)(=O)Nc1ccccc1F -33.2%
Clc1cccc(N2CCN(c3ncnc4c3nc3n4CCCCC3)CC2)c1 -61.3%
Cc1nc(-c2ccc(Cl)cc2)sc1CCNC(=O)C(=O)Nc1ccc(F)cc1F -1.25%
O=C(O)c1cc(NC2(c3ccccc3)C(=O)c3ccccc3C2=O)ccc1Cl -1.14%
Cc1cc(C)c(Cn2c3ccccc3c3cnn(CC(=O)NC4CCC(C)CC4)c(=O)c32)c(C)c1 (centres undefined) -21.7%
O=C(Cn1c(=O)oc2cc(S(=O)(=O)N3CCCCC3)ccc21)Nc1cccc(Cl)c1 -45.8%
CCCCN1C(=O)c2[nH]nc(-c3ccccc3O)c2C1c1cccc(OCc2ccccc2)c1 (centres undefined) -31.1%
Cc1ccccc1NC(=O)c1ccc(F)c(S(=O)(=O)N(C)Cc2ccccc2)c1 -33.2%
COc1ccccc1C1C=C(c2ccc(F)cc2)Nc2nc(-c3ccc(Cl)cc3)nn21 (centres undefined) -36.6%
COC(=O)c1sccc1S(=O)(=O)N1CCN(c2ccccc2)CC1 -14.8%
CCOc1ccc(CCNC(=O)CCc2c(C)nc3c4c(C)cc(C)nc4nn3c2C)cc1 -22.3%
Cc1ccc2[nH]c(=O)c3cc(C(=O)N4CCN(c5ccccc5)CC4)sc3c2c1 0.0729%
Cc1cccc(C(=O)Nc2sc3c(c2C(=O)NCc2ccco2)CCCC3)c1 27%
COc1cccc(NC(=O)NCc2ccc3c(c2)CCN3C(=O)c2ccccc2)c1 -26.7%
CCN(CC)S(=O)(=O)c1ccc2c(c1)N(CC(=O)NCCCN1CCN(c3ccccc3F)CC1)C(=O)CO2 -6.85%
CC(C)CCNC(=O)CCCN1C(=O)c2ccccc2Sc2ncccc21 -20.5%
COc1cc(-c2noc(CN3CCN(c4ccccc4)CC3)n2)cc(OC)c1OC 2.3%
CCOC(=O)c1ccccc1NC(=O)N1CCc2c(sc(C)c2CC)C1c1ccccc1 (centres undefined) -15.8%
COc1ccccc1-c1nc2c(c(SCc3cccc(Cl)c3)n1)Cc1c(CO)cnc(C)c1O2 -31.4%
Cc1cccc(NC(=O)C(=O)NCC(c2ccc3c(c2)OCO3)N2CCOCC2)c1C (centres undefined) -18.2%
CCc1ccc(C2c3c(-c4ccccc4O)n[nH]c3C(=O)N2Cc2ccncc2)cc1 (centres undefined) -40.8%
COc1cc(OC)cc(C(=O)Oc2c(Sc3ccccc3)c(C)nn2C(C)(C)C)c1 -17.7%
Cc1cn2c(=O)cc(COC(=O)c3cccc(NC(=O)COc4ccccc4Cl)c3)nc2s1 -53.3%
CN1CCN(C(CNC(=O)c2cccc(F)c2)c2ccc3c(c2)OCO3)CC1 (centres undefined) -1.32%
Cc1cc(C)c(NC(=O)C2CCN(c3nc4ccccc4[nH]3)CC2)c(C)c1 -12.1%
O=C(Nc1cccs1)Nc1cc(C(F)(F)F)ccc1Cl -20.4%
Cc1ccc(Cl)cc1N1CCN(C(=O)c2cnc(N3CCOCC3)c3ccccc23)CC1 -48.2%
Fc1ccc(C(c2ccc(F)cc2)N2CCN(CC=Cc3ccccc3)CC2)cc1 -15.9%
CCc1ccc(NC(=O)CN2CCN(Cc3ccccc3)S2(=O)=O)cc1 -11.5%
Cc1oc2c(c(C)cc3oc(=O)c(CC(=O)NCCc4ccccc4F)c(C)c32)c1C -13.4%
CCOC(=O)C1CCN(c2ncnc3c2c(-c2ccccc2)cn3-c2cccc(C)c2)CC1 -28.5%
Cc1ccc(Cn2c(C(=O)O)c(CNCc3ccccc3Cl)c3ccc(C)cc32)cc1 -24.1%
Cc1ccccc1-n1c(SCC(=O)Nc2ccc(Cl)cc2F)nnc1-c1cc2occc2n1C -5.48%
Cc1cccc(NC(=O)CCCn2c(C)c3cnn(-c4ccccc4)c(=O)c3c2C)c1C -14.6%
CCc1ccc(CNC(=O)c2sc3ncccc3c2-n2c(C)ccc2C)cc1 -19.7%
Cc1ccc(-c2nc3cc(C(C)C)ccc3o2)cc1NC(=O)c1cc2ccccc2o1 -28.3%
CCOc1ccccc1CNS(=O)(=O)c1ccc2c(c1)CCCN2C(C)=O -19.1%
O=C(Cn1ccn(-c2ccc(F)c(F)c2)c(=O)c1=O)Nc1ccccc1F -0.645%
Cc1ccc(OCC(=O)Nc2ccc(S(=O)(=O)Nc3cc(C)nc(C)n3)cc2)c(Br)c1 -24.5%
Cc1ccc(C)n1-c1nnc(N2CCCC(C(=O)NCc3ccc(Cl)cc3)C2)s1 (centres undefined) -28.2%
COc1ccc(C2=CC(c3ccc(F)cc3)n3ncc(C(=O)Nc4ccc(C)cc4)c3N2)cc1 (centres undefined) -18%
Cc1ccc(CN2CCc3nc(N4CCN(c5ncccn5)CC4)ncc3C2)cc1 -33.9%
COc1cccc(NC(=O)CSc2nc3c(oc4ccccc43)c(=O)n2Cc2ccco2)c1 -27.1%
O=C(CCSc1nc(-c2ccco2)cc(C(F)(F)F)n1)Nc1cccc(O)c1 -16.7%
O=C(Nc1ccc2oc(-c3cccnc3)nc2c1)c1cccc(Br)c1 5.74%
Cc1ccc(N(CC(=O)NCCc2ccc(Cl)cc2)S(=O)(=O)N(C)C)cc1 -24.4%
Fc1ccc(-n2ncc3c(NCCCN4CCOCC4)ncnc32)cc1 6.81%
CCOC(=O)c1c(NC(=O)CSc2cn(CCNC(=O)c3ccccc3F)c3ccccc23)sc2c1CCC2 -38.2%
O=C(Nc1ccc2nc(SCC(=O)N3CCCc4ccccc43)sc2c1)c1cccc(F)c1 -37.9%
COC(=O)c1cc(S(=O)(=O)NCC2CCN(Cc3ccc(F)cc3)CC2)cn1C -11.9%
COc1cccc(CNC(=O)c2ccc(CSc3nc4ccncc4n3Cc3cccc(C)c3)cc2)c1 -25.3%
Cc1ccc2c(c1)N(CCC(=O)NCc1ccc(F)cc1)C(=O)CO2 -17.1%
CCOCCc1nn2c(=O)cc(COC(=O)CNC(=O)c3ccc(C(C)(C)C)cc3)nc2s1 -13.8%
COc1cc(NC(=O)CCc2c(C)nn(-c3ccc4nncn4n3)c2C)cc(OC)c1OC -9.92%
Cc1ccc(Cl)cc1N1CCN(S(=O)(=O)c2ccc3[nH]c4c(c3c2)CCCCC4)CC1 -28.4%
Cc1cccc(CSc2ncc(CO)n2Cc2ccc(F)cc2)c1 -18.7%
Cc1ccc2c(c1)-c1nc(-c3ccc(Cl)cc3)cc(-c3coc4ccccc4c3=O)c1CO2 -13.9%
CCCSc1ncc(Cl)c(C(=O)Nc2ccc(S(=O)(=O)Nc3ncccn3)cc2)n1 -5.92%
